In the BET-seq Pho4 binding data (Le et al. 2018):
This is one part of the list. The energies were worked out here from pooled read counts, against the library average; single values are noisy.

These sequences were tested against T1, Pho4 (S. cerevisiae) (UniProt P07270) (assay: relative binding free energy (BET-seq); higher = weaker binding). Details: reference: library average.
T1 sequence: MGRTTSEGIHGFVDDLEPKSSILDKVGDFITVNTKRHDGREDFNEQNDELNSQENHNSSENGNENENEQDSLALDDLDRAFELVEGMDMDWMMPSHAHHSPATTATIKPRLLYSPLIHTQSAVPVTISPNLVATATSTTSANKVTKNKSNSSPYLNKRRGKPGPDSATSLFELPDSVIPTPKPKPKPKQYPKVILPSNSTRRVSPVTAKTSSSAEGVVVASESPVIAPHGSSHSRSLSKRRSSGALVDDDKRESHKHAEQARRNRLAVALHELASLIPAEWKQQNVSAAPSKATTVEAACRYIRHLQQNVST

Row | Sequence | relative binding free energy [kJ/mol]
1 | TGTGCCACGTGTCGTA | -0.377
2 | TATATCACGTGTGTAG | 0.544
3 | AGTGTCACGTGGGAGT | -0.46
4 | TCTTTCACGTGTTTGT | 1.17
5 | GTTAGCACGTGAAGTC | 1.59
6 | TAAGGCACGTGTGGTC | 0.251
7 | GTGAACACGTGTTTGT | 0.377
8 | ATAAGCACGTGTTCGT | -0.544
9 | GTGTTCACGTGTGGAA | 1.46
10 | TTGAGCACGTGGGTAG | -0.335
11 | TTATACACGTGACTTT | 0.92
12 | GTTTTCACGTGTCATT | 1.21
13 | GAGTTCACGTGCGCGG | 0.837
14 | ATGGCCACGTGGGGTT | -1.09
15 | AGCGGCACGTGAGGCG | 0.377
16 | CATGGCACGTGCTGGT | -0.669
17 | TATATCACGTGTGTTT | 0.879
18 | ATGAGCACGTGTCTGT | -0.837
19 | ATGGTCACGTGCGGGT | 0.377
20 | CATATCACGTGGTGGT | -0.167
21 | GTCCTCACGTGGGGTT | 0.586
22 | AAGGTCACGTGGTCTT | 0.544
23 | ATATTCACGTGGACGT | 0.92

Row | Sequence | relative binding free energy [kJ/mol]
24 | GTAGGCACGTGTGTGG | 0
25 | GTTTACACGTGAGGGG | 1.63
26 | TGTGACACGTGCGCGT | -0.628
27 | AGAAGCACGTGATTGG | 0.377
28 | TGGGTCACGTGGGTAT | 0.126
29 | GGGGGCACGTGCTGGA | -0.795
30 | ACGGACACGTGGTTTA | 0.628
31 | GGTAACACGTGTTAAG | -0.126
32 | GGGTGCACGTGAGCGC | 0.46
33 | GGAGACACGTGTTAAG | 0.669
34 | GTGCGCACGTGGTCGT | -0.418
35 | ATTTTCACGTGTACGC | 1.67
36 | GGTGTCACGTGGGGAG | -0.0837
37 | GTGTTCACGTGCGAAT | 1.09
38 | AATTGCACGTGTTACA | 0.377
39 | GATTACACGTGGCAGG | 1
40 | TATCTCACGTGTTAGT | 0.879
41 | TGATACACGTGGTTGG | 0.209
42 | ATTTCCACGTGCTGGT | 0.335
43 | GTTCTCACGTGTGTTA | 0.711
44 | TTTAGCACGTGTAAAC | 1.38
45 | TGGTTCACGTGGTAGC | 1.42
46 | GGGGTCACGTGTTGGG | 1.05

Row | Sequence | relative binding free energy [kJ/mol]
47 | TAGTGCACGTGCATGA | -0.586
48 | TTAGGCACGTGACTTT | -0.293
49 | GCGGGCACGTGTGTTA | -0.251
50 | TTGAACACGTGGGGGA | -0.0418
51 | GATGGCACGTGGTACT | -0.418
52 | GTGGACACGTGAGGTT | 1.21
53 | TAGTTCACGTGGGTTG | 1.09
54 | GGGGACACGTGAATGA | 1.67
55 | TGGTGCACGTGAGTGC | 0.586
56 | AGCATCACGTGTGGTT | 0
57 | ATTGTCACGTGGATCT | 0.502
58 | TAGGCCACGTGGTCTG | -0.879
59 | ATGTGCACGTGTTCGT | -0.293
60 | TTATGCACGTGCGGAT | -0.502
61 | GCGTACACGTGGGTGT | 0
62 | GGTAGCACGTGTCCGG | -0.209
63 | TTCGGCACGTGCCGGG | -1
64 | AGATGCACGTGGTAGC | 0.0418
65 | TGTCGCACGTGAGGTA | 0.502
66 | GGGAGCACGTGGAAAG | -0.0418
67 | GGCGACACGTGGCGTT | 0.669
68 | TGTTCCACGTGATAAT | 1.46
69 | GAGTTCACGTGTTCGG | 1.92

Row | Sequence | relative binding free energy [kJ/mol]
70 | ATAGTCACGTGAGAGA | 1.05
71 | TGTTGCACGTGGATAT | -0.0837
72 | TGTATCACGTGTTGGC | 0.669
73 | TGTGTCACGTGTTGAT | 0.0418
74 | GAGGTCACGTGTTTTA | 1.26
75 | AAATGCACGTGATTGT | 0.502
76 | GTTAACACGTGTTAGC | 0.544
77 | TTAGGCACGTGTACTG | -0.46
78 | AGGATCACGTGAGGGC | 1.3
79 | TATTGCACGTGATGAA | 0.46
80 | ATTGACACGTGGTTTA | -0.293
81 | TTAGTCACGTGTTAAA | 0.502
82 | CGTTACACGTGTGCGT | 0.335
83 | TAAATCACGTGGCAGT | 0.586
84 | AATCTCACGTGGGGTA | 0.502
85 | AATGTCACGTGGGGGA | -0.0837
86 | TTAGTCACGTGTAACT | 0.502
87 | TAGGACACGTGAAAGG | 1.26
88 | TGCAGCACGTGCGGTG | -0.544
89 | TGGAACACGTGATGAG | 0.879
90 | ATTTTCACGTGGTATT | 1.38
91 | GTATTCACGTGGAAGA | 1.34
92 | GATGGCACGTGGTGTA | -0.377

Row | Sequence | relative binding free energy [kJ/mol]
93 | TCTTTCACGTGGTCTG | 0.711
94 | GAATGCACGTGGTGCG | 0.0837
95 | GTATTCACGTGTGCGA | 1
96 | GAAAGCACGTGACGGG | 0.753
97 | CATATCACGTGGAGGT | 0.837
98 | GGTTTCACGTGCAAGG | 0.628
99 | TGGTACACGTGATTAG | 0.628
100 | GATAGCACGTGGATTG | -0.377
101 | AATAGCACGTGCTGTT | -0.795
102 | ATGGGCACGTGGAAGT | 0.167
103 | TCGATCACGTGGTTTT | 0.669
104 | GGATGCACGTGTTTGT | 0.251
105 | GGGTACACGTGTTAAT | 0.126
106 | TGGTACACGTGTGTGG | 0.628
107 | TTGTGCACGTGGCGGC | -0.418
108 | TGGTGCACGTGCCGGG | -0.962
109 | TAATTCACGTGTGTTT | 1
110 | TGGCACACGTGTTGGT | 0.711
111 | TTCTGCACGTGGAAAT | 0.837
112 | AAATACACGTGAGGGG | 1.42
113 | TAGAGCACGTGGATGA | -0.293
114 | ATGGGCACGTGGTCAG | -1.09
115 | GGGTTCACGTGCTTGA | 1.42
